# Data: the supplement of paper PMC10338343
# ± gives the standard deviation. This is a selection; strong and weak results do not stand in their true shares.
# Tested on: MIWI (PIWIL1) piRISC loaded with L1MC piRNA (30 nt)
# Assay: pre-steady-state target cleavage rate (min^-1); MIWI and MILI are mouse PIWI proteins and EfPiwi is from a freshwater sponge; tags in brackets are library labels; higher = faster piRNA-guided slicing of the target
# Conditions: guide: L1MC piRNA 5'p-UAACUAAAUACUAUGCAAGCUGUAGGUCCU
# In short: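 Sequencing of uncleaved targets, normalised to depth and to weakly complementary targets, was the readout of this Cleave-'n-Seq assay. A transcribed, DNA-blocked target RNA library (0.1 nM) was mixed with 1 nM active affinity-purified piRISC carrying one synthetic guide, with or without 500 nM GTSF1 partner protein, in HEPES–potassium acetate buffer at 33 °C for 0–8 or 0–960 min. Three trials were pooled, k3 was capped at 0.0001 min^-1, and a burst-and-steady-state fit gave the pre-steady-state cleavage rate.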
# [1] = auxiliary factor: 500 nM mouse GTSF1
# [2] = auxiliary factor: none (no GTSF1)
sequence,measurement,setting,value
UGGACCUAGAGCUUGCAUAGUAUAUAGUUA,pre-steady-state target cleavage rate,[1],0.529 ± 0.045
same,pre-steady-state target cleavage rate,[2],0.0301 ± 0.0071
UCCUGCUACAGCUUGCAUAGUUUUUUGUUA,pre-steady-state target cleavage rate,[1],0.344 ± 0.038
same,pre-steady-state target cleavage rate,[2],0.0176 ± 0.0041
UCCUGGAUGUCCUUGCAUAGUAAAUAGUUA,pre-steady-state target cleavage rate,[1],0.00551 ± 0.0036
same,pre-steady-state target cleavage rate,[2],0.00317 ± 0.0029
UCCUCCAACAGCUUGCAUAGUAUUUUGUUA,pre-steady-state target cleavage rate,[1],0.471 ± 0.033
same,pre-steady-state target cleavage rate,[2],0.0236 ± 0.0035
UGGACCUACUGCUUGCAUAGAAUUUAGUUA,pre-steady-state target cleavage rate,[1],0.328 ± 0.022
same,pre-steady-state target cleavage rate,[2],0.0199 ± 0.0058
UCCUGCUACAGCUUGGUUAGUAUUUAGUUA,pre-steady-state target cleavage rate,[1],0.981 ± 0.071
same,pre-steady-state target cleavage rate,[2],0.00818 ± 0.0024
ACGACCUAGAGCUUGCAUAGUAUUUAGUUA,pre-steady-state target cleavage rate,[1],1.15 ± 0.065
same,pre-steady-state target cleavage rate,[2],0.0682 ± 0.011
UGGACGUACAGCUUGCAUAGUAUUUUCAAA,pre-steady-state target cleavage rate,[1],0.213 ± 0.034
same,pre-steady-state target cleavage rate,[2],0.00471 ± 0.0022
UCCUGGUACAGCAUGCAUAGUUUUUAGUUA,pre-steady-state target cleavage rate,[1],0.176 ± 0.04
same,pre-steady-state target cleavage rate,[2],0.0217 ± 0.0066
UGGACCUUCACCUUGCAUAGUAUUUAGUUA,pre-steady-state target cleavage rate,[1],0.853 ± 0.033
same,pre-steady-state target cleavage rate,[2],0.0375 ± 0.0069
UCGACGUACAGCUUGCAUAGUAUUUAGUAA,pre-steady-state target cleavage rate,[1],1.01 ± 0.062
same,pre-steady-state target cleavage rate,[2],0.0599 ± 0.011
UGGACCUACAGCAAGCAUAGUAUUUAGUUA,pre-steady-state target cleavage rate,[1],1.34 ± 0.1
same,pre-steady-state target cleavage rate,[2],0.00929 ± 0.0027
UCCUGGAACAGCUUGCAUAGUAUUUACAUA,pre-steady-state target cleavage rate,[1],0.169 ± 0.03
same,pre-steady-state target cleavage rate,[2],0.0166 ± 0.0043
UCCUGGAUCAGCUUGCUUAGUAUUUAGAAA,pre-steady-state target cleavage rate,[1],0.116 ± 0.021
same,pre-steady-state target cleavage rate,[2],0.00482 ± 0.0028
UCGACCUACAGGUUGCAUAGAAUUUAGUUA,pre-steady-state target cleavage rate,[1],0.315 ± 0.021
same,pre-steady-state target cleavage rate,[2],0.0138 ± 0.0036
UCCUGCUACAGCUUGCAUAGUAUUAAGUUA,pre-steady-state target cleavage rate,[1],0.584 ± 0.041
same,pre-steady-state target cleavage rate,[2],0.0168 ± 0.0031
AGGACCUACAGGUUGCAUAGUAUAUAGUUA,pre-steady-state target cleavage rate,[1],0.811 ± 0.078
same,pre-steady-state target cleavage rate,[2],0.0317 ± 0.0061
UCCACCUACAGCUUGGAUAGUAAUUAGUUA,pre-steady-state target cleavage rate,[1],0.674 ± 0.034
same,pre-steady-state target cleavage rate,[2],0.015 ± 0.0028
UCGUCCUACAGCUUGCAUAGUAUUUACUUA,pre-steady-state target cleavage rate,[1],0.294 ± 0.022
same,pre-steady-state target cleavage rate,[2],0.0351 ± 0.0049
UCGACCUACAGCUUGCAUAGAAUUUAGAAA,pre-steady-state target cleavage rate,[1],0.369 ± 0.048
same,pre-steady-state target cleavage rate,[2],0.00627 ± 0.0024
AGGACCUACAGCUUGCAUUGUAUUUAGAUA,pre-steady-state target cleavage rate,[1],0.304 ± 0.035
same,pre-steady-state target cleavage rate,[2],0.0154 ± 0.0038
UCCUGGAUCACGUUGCAUAGUAUUUAGUUA,pre-steady-state target cleavage rate,[1],0.143 ± 0.02
same,pre-steady-state target cleavage rate,[2],0.00548 ± 0.0023
UCGACCUACUGCUUGCAUAGUAUUUUGUUA,pre-steady-state target cleavage rate,[1],0.809 ± 0.027
same,pre-steady-state target cleavage rate,[2],0.059 ± 0.009
UGGUCCUACAGCUUGCAUAGAAUUUAGUUA,pre-steady-state target cleavage rate,[1],0.377 ± 0.023
same,pre-steady-state target cleavage rate,[2],0.0231 ± 0.0041
UCCUGGUACAGCUUGCAUAGUAUUUACAAA,pre-steady-state target cleavage rate,[1],0.151 ± 0.025
same,pre-steady-state target cleavage rate,[2],0.00333 ± 0.0019
UCCUGGUACAGCUUGCAUAGUAAUUAGUUA,pre-steady-state target cleavage rate,[1],0.708 ± 0.077
same,pre-steady-state target cleavage rate,[2],0.0199 ± 0.0041
AGGACCUAGAGCUUGGAUAGUAUUUAGUUA,pre-steady-state target cleavage rate,[1],1.15 ± 0.062
same,pre-steady-state target cleavage rate,[2],0.0524 ± 0.0094
UGGACCUACAGCAUGCAUAGAAUUUAGUUA,pre-steady-state target cleavage rate,[1],0.318 ± 0.041
same,pre-steady-state target cleavage rate,[2],0.0107 ± 0.0035
UCCUGGAUGUCCUUGCAUAGUAUUUAGUUC [g2:g19:cont:t1C],pre-steady-state target cleavage rate,[1],0.093 ± 0.011
same,pre-steady-state target cleavage rate,[2],0.0107 ± 0.003
UCCUGGAUGUCGUUGCAUAGUAUUUAGUGA,pre-steady-state target cleavage rate,[1],0.0258 ± 0.0089
same,pre-steady-state target cleavage rate,[2],0.00328 ± 0.0026
AGGAGCUAGAGCUUGCAUAGUAUUUAGUUA,pre-steady-state target cleavage rate,[1],0.922 ± 0.049
same,pre-steady-state target cleavage rate,[2],0.0536 ± 0.0099
UCCUCCUACAGCUUGCAUAGUAUUGUAGUUA,pre-steady-state target cleavage rate,[1],0.282 ± 0.054
same,pre-steady-state target cleavage rate,[2],0.00959 ± 0.0038
AGGACCUACAGCUUGCAUAGUAUUUAGUUU [g2:g30:cont:t1U],pre-steady-state target cleavage rate,[1],1.64 ± 0.079
same,pre-steady-state target cleavage rate,[2],0.165 ± 0.036
UCCACCCACAGCUUGCAUAGUAUUUAGUUA,pre-steady-state target cleavage rate,[1],0.787 ± 0.052
same,pre-steady-state target cleavage rate,[2],0.0508 ± 0.0088
UCCUGGUACUGCUUGCAUAGUUUUUAGUUA,pre-steady-state target cleavage rate,[1],0.142 ± 0.028
same,pre-steady-state target cleavage rate,[2],0.0188 ± 0.0057
AGGACCUACAGCUAGCUUAGUAUUUAGUUA,pre-steady-state target cleavage rate,[1],0.935 ± 0.057
same,pre-steady-state target cleavage rate,[2],0.0127 ± 0.0031
UCCUGCUACAUCUUGCAUAGUAUUUAGUUA,pre-steady-state target cleavage rate,[1],0.629 ± 0.035
same,pre-steady-state target cleavage rate,[2],0.0492 ± 0.007
UCCUCCUACUGCUUGCAUAGUAUUUACAAA,pre-steady-state target cleavage rate,[1],0.128 ± 0.016
same,pre-steady-state target cleavage rate,[2],0.00353 ± 0.0017
UCCUGCUACAGCUUGCAAUGUAUUUAGUAA,pre-steady-state target cleavage rate,[1],0.323 ± 0.034
same,pre-steady-state target cleavage rate,[2],0.00418 ± 0.0024
UCCUGCAACAGGUUGCAUAGUAUUUAGUUA,pre-steady-state target cleavage rate,[1],1.11 ± 0.085
same,pre-steady-state target cleavage rate,[2],0.0208 ± 0.0052
UCCUGGAACAGCCUGCAUAGUAUUUAGUUA,pre-steady-state target cleavage rate,[1],0.989 ± 0.053
same,pre-steady-state target cleavage rate,[2],0.0552 ± 0.01
AGCACCUACAGCUUGCAUUGUAUUUAGUUA,pre-steady-state target cleavage rate,[1],0.607 ± 0.045
same,pre-steady-state target cleavage rate,[2],0.0284 ± 0.0055
UGGACCUAGAGCUUGCAUAGAAUUUAGUUA,pre-steady-state target cleavage rate,[1],0.308 ± 0.027
same,pre-steady-state target cleavage rate,[2],0.0167 ± 0.0055
UCGACCUACAGCUUACAUAGUAUUUAGUUA,pre-steady-state target cleavage rate,[1],1.59 ± 0.062
same,pre-steady-state target cleavage rate,[2],0.0382 ± 0.0069
UCCUGGAUCAGCUUGCAUAGUAUUUAGUUC [g2:g22:cont:t1C],pre-steady-state target cleavage rate,[1],1.14 ± 0.052
same,pre-steady-state target cleavage rate,[2],0.0609 ± 0.012
UCCUGGUAGUCCUUGCAUAGUAUUUAGUUA,pre-steady-state target cleavage rate,[1],0.0925 ± 0.011
same,pre-steady-state target cleavage rate,[2],0.0106 ± 0.0024
UCCUGGAUCAGCUUGCAUAGUAUUCAGUUA,pre-steady-state target cleavage rate,[1],0.509 ± 0.046
same,pre-steady-state target cleavage rate,[2],0.0165 ± 0.0045
UCCUGGUACUGCUUGCAUAGUAUAUAGUUA,pre-steady-state target cleavage rate,[1],0.2 ± 0.038
same,pre-steady-state target cleavage rate,[2],0.0161 ± 0.0041
UCCUGCUACAGCUUGCAUAGUAUUAACUUA,pre-steady-state target cleavage rate,[1],0.0939 ± 0.012
same,pre-steady-state target cleavage rate,[2],0.00607 ± 0.0022
UCCACGUACAGCUUGCAUUGUAUUUAGUUA,pre-steady-state target cleavage rate,[1],0.809 ± 0.03
same,pre-steady-state target cleavage rate,[2],0.0299 ± 0.0072
UCCAGGAACAGCUUGCAUAGUAUUUAGUUA,pre-steady-state target cleavage rate,[1],0.919 ± 0.029
same,pre-steady-state target cleavage rate,[2],0.07 ± 0.013
UCCUCCUACAGCUUGGAUAGUAUUUUGUUA,pre-steady-state target cleavage rate,[1],0.77 ± 0.052
same,pre-steady-state target cleavage rate,[2],0.0251 ± 0.004
UCCACCUACACCUUGCAUAGUAUUUAGAUA,pre-steady-state target cleavage rate,[1],0.315 ± 0.05
same,pre-steady-state target cleavage rate,[2],0.0153 ± 0.0035
UCCACCUACAGCUUGCAUAGUAAUUAGUAA,pre-steady-state target cleavage rate,[1],0.341 ± 0.044
same,pre-steady-state target cleavage rate,[2],0.009 ± 0.003
